The target of experiment [1] is T1, His-tagged ectodomain of human transferrin receptor 1 (hTfR1, R121-F760) (human, UniProt P02786 fragment).
T1 construct: Made in CHO cells; Biotinylated for some uses; also called human TfR1
Briefly: SPR Biacore 8K single-cycle; VHH-Fc on protein A chip, TfR1 ectodomain as analyte. Background: SPR reads the build-up and loss of mass on a sensor chip optically.

For experiment [2], the target named is T2, His-tagged ectodomain of mouse transferrin receptor 1 (mTfR1, S122-F763) (mouse, UniProt Q62351 fragment).
T2 construct: also called mouse TfR1
The experiment is described as above.

In experiment [3] the target is T1, His-tagged ectodomain of human …. Put plainly: SPR; binder on protein A chip, hTfR1 as analyte, in presence of 250 nM hTf.
The target is the same in experiment [4]. Put plainly: SPR Biacore T200; binder on protein A chip, TfR1 ectodomain as analyte.
The target of experiment [5] is T2, His-tagged ectodomain of mouse …. Described as above.
Experiment [6] addresses T3, His-tagged ectodomain of cynomolgus transferrin receptor 1 (cTfR1, R121-F760) (cynomolgus, UniProt Q5RDH6 121-760 (Pongo abelii entry)).
T3 construct: also called cynomolgus TfR1
T3 chain: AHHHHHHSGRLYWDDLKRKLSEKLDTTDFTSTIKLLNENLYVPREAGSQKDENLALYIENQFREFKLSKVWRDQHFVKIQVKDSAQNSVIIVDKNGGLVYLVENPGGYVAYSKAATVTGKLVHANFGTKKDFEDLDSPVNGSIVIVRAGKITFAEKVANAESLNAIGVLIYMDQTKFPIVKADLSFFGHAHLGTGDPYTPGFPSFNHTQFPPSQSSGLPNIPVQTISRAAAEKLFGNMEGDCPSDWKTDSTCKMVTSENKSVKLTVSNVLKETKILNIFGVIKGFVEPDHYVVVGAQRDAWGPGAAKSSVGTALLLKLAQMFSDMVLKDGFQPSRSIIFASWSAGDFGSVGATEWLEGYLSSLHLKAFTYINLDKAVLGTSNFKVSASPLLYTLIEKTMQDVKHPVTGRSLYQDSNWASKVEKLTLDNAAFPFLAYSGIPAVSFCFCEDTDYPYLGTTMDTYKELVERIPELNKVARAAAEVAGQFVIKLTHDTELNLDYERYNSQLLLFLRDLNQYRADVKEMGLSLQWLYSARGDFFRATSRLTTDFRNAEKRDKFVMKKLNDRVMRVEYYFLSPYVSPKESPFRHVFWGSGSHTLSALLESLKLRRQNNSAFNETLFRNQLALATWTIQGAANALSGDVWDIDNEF
The description is as above.

For experiment [7], the target named is T1, His-tagged ectodomain of human …. Put plainly: SPR; binder on protein A chip, hTfR1 as analyte.
Experiment [8] has the same target. Briefly: SPR; binder on protein A chip, hTfR1 as analyte, with and without 250 nM hTf.
Experiment [9] has as its target T2, His-tagged ectodomain of mouse …. Briefly: SPR; binder on protein A chip, mTfR1 as analyte.
In experiment [10] the target is T1, His-tagged ectodomain of human …. Briefly: SPR; binder on protein A chip, hTfR1 as analyte, without hTf.

Data on eleven molecules can be found in US20260116990A1 (KEY2BRAIN, published 2026).

As a reminder, the Kd is the equilibrium constant for the complex coming apart. The term koff denotes a measure of how fast the partners let go of each other. The kon is the second-order rate constant of association.

T2 sequence (Q62351 other isoform, or with tags, fused parts or gaps limits assumed): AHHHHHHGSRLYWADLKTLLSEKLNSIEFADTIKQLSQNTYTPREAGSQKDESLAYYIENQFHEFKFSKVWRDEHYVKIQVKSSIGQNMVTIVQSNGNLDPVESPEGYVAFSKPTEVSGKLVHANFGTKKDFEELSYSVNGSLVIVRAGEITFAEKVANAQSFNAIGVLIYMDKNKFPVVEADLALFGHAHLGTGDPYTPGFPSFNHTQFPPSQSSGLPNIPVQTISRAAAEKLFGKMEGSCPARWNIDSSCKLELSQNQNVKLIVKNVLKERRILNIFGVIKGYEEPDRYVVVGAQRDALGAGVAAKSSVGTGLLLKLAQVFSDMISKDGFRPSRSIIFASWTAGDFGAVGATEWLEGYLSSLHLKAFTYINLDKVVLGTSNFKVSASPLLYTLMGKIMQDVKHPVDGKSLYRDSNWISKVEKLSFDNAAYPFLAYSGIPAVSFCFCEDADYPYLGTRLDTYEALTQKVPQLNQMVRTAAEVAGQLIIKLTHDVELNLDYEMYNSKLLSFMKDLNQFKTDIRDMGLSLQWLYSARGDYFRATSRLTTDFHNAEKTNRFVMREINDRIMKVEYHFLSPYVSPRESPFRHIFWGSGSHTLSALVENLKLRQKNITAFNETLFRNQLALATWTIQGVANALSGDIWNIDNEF

B1: KB_B08 Fc fusion (Fc fusion)
chain: QVQLQESGRGVVQAGGSLRLSCAASGNRFGIEYMRWYRQAPGKQREFVAGFTSAGSTNYGDSVKGRFTISRDNAKNTVYLQMDSLIPEDTAVYYCHYLGDWGQGTQVTVSSGG[letters of human IgG1 Fc not shown]
notes: Dimeric VHH-GG-human IgG1 Fc
In experiment [1], B1 yielded a Kd of 451 pM, a koff of 7.09e-05 s⁻¹ and an on-rate constant (kon) of 157000 M⁻¹ s⁻¹. Further, in experiment [2], the dissociation constant Kd turned out to be 116000 pM, the koff amounted to 53.4 s⁻¹ and the kon was determined as 4.58e+08 M⁻¹ s⁻¹.

B2: KB_B02 Fc fusion (Fc fusion)
chain: QVQLQESGGGLVQAGGSLRLSCTASGTPFTNNYMRWYRQAPGKQREWVAGFTSAGNTNYADSVKGRFTISRDNAEGTVYLQMDNLKPEDTAVYYCYFLDVWGQGTQVTVSSGG[letters of human IgG1 Fc not shown]
notes: Dimeric VHH-GG-human IgG1 Fc
Consider B2, for which, in experiment [1], the affinity, expressed as Kd, was 206 pM; the koff stood at 4.03e-05 s⁻¹; the kon is 196000 M⁻¹ s⁻¹. In [2], this molecule gave an equilibrium dissociation constant (Kd) of 2610 pM, a koff of 0.000211 s⁻¹ and a kon of 80900 M⁻¹ s⁻¹.

B3: KB_B05 Fc fusion (Fc fusion)
chain: QVQLQESGGGLVQAGGSLRLSCVASGTDFSMNYMRWYRQAPGKQREWVAGFTSTGSTNYPDSMKGRFTISRDNAKNTVYLQMDSLKPEDTAVYYCHFLGDWGQGTQVTVSSGG[letters of human IgG1 Fc not shown]
notes: Dimeric VHH-GG-human IgG1 Fc
In experiment [1], B3 showed a Kd of 14.1 pM, a dissociation rate constant (koff) of 3.48e-06 s⁻¹ and an on-rate constant (kon) of 247000 M⁻¹ s⁻¹. In experiment [2], this molecule yielded a Kd of 83700 pM, a koff of 69.9 s⁻¹ and a kon of 8.35e+08 M⁻¹ s⁻¹.

B4: KB_B01 Fc fusion (KB_B01, GG spacer, human IgG1 Fc) (Fc fusion)
chain: QVQLQESGGGLVQAGGSLRLSCAASGTPFSNNYMRWYRQAPGKQREWVAGFTSGGSTNYADSVKGRFTISRDNAEGTVYLQMDNLKPEDTAVYYCYFLDVWGQGTQVTVSSGG[letters of human IgG1 Fc not shown]
notes: Bivalent dimer made in Expi293 cells
Regarding B4, the dissociation constant (Kd) in experiment [3] worked out at 664 pM; in experiment [4], 176 pM; in experiment [5] it was 2820 pM; in experiment [10], 66.7 pM. For the same molecule, the koff in experiment [3] came to 0.000101 s⁻¹; in experiment [4], 9.67e-05 s⁻¹; in experiment [5], 0.0235 s⁻¹; in [6] it was 8.18e-05 s⁻¹; in [10], 4.34e-05 s⁻¹. Moreover, the on-rate constant (kon) in experiment [3] worked out at 152000 M⁻¹ s⁻¹; in experiment [4], 550000 M⁻¹ s⁻¹; in [5] it was 8.35e+06 M⁻¹ s⁻¹; in experiment [6] it was 765000 M⁻¹ s⁻¹; in experiment [10] it was 651000 M⁻¹ s⁻¹. For the same molecule, in experiment [7], the “fold higher affinity than free monomeric KB_B01” value was found to be 19 fold. Also, in [8], the “fold drop in affinity with 250 nM hTf versus without hTf” value was 10 fold. In addition, the “fold lower affinity than BV-Fc” value in experiment [9] stood at 6.4 fold.

B5: KB_B06 Fc fusion (Fc fusion)
chain: QVQLQESGGGLVQTGGSLRLSCVVSGTDFSLNYLRWYRQAPGNQREWVAGFTATGSTNYPDSMKGRFTIGRDNAKNTVYLQMDSLKPEDTAVYYCHFLGDWGQGTQVTVSSGG[letters of human IgG1 Fc not shown]
notes: Dimeric VHH-GG-human IgG1 Fc
On to B5, for which, in [1], the dissociation constant Kd came out at 15.3 pM, the koff turned out to be 3.79e-06 s⁻¹ and the on-rate constant (kon) worked out at 247000 M⁻¹ s⁻¹. In [2], this molecule yielded a dissociation constant Kd of 89700 pM, an off-rate constant (koff) of 58.5 s⁻¹ and an on-rate constant (kon) of 6.53e+08 M⁻¹ s⁻¹.

B6: KB_B03 Fc fusion (Fc fusion)
chain: QVQLQESGGGLVQAGGSLRLSCAASGTDFSLNYMRWYRQAPGKQREWVAGFTTHGDTNYADSMKGRFTISRDNAKNTVYLQMDSLKPEDTAVYFCYFLDNWGQGTQVTVSSGG[letters of human IgG1 Fc not shown]
notes: Dimeric VHH-GG-human IgG1 Fc
In [1], B6 gave a Kd of 70.1 pM, a koff of 2.13e-05 s⁻¹ and an on-rate constant (kon) of 303000 M⁻¹ s⁻¹. In experiment [2], the dissociation constant Kd is 679 pM, the koff turned out to be 4.58e-05 s⁻¹ and the kon stood at 67500 M⁻¹ s⁻¹.

B7: KB_B07 Fc fusion (Fc fusion)
chain: QVQLQESGGGLVQTGGSLRLSCVVSGTDFSLNYLRWYRQAPGKQREWVAGFTASGSTNYPDSMKGRFTIGRDNAKNTVYLQMDSLTPEDTAVYYCHFLGDWGQGTQVTVSSGG[letters of human IgG1 Fc not shown]
notes: Dimeric VHH-GG-human IgG1 Fc
Regarding B7, in experiment [1], the Kd turned out to be 18.4 pM, the koff was 4.48e-06 s⁻¹ and the kon was 243000 M⁻¹ s⁻¹. For the same molecule, in experiment [2], binding was put at a Kd of 67800 pM, the dissociation rate constant (koff) amounted to 47.9 s⁻¹ and the on-rate constant (kon) came to 7.07e+08 M⁻¹ s⁻¹.

B8: KB_B04 Fc fusion (Fc fusion)
chain: QVQLQESGGGLVQAGGSLRLSCALSGTDFSMNYMRWYRQAPGKQREWVAGFTSSGNTNYPDSVKGRFTISRDNAKNTVYLQMDSLKPEDTAVYYCYFLDNWGQGTQVTVSSGG[letters of human IgG1 Fc not shown]
notes: Dimeric VHH-GG-human IgG1 Fc
In experiment [1], B8 yielded a Kd of 4.95 pM, an off-rate (koff) of 1.16e-06 s⁻¹ and a kon of 234000 M⁻¹ s⁻¹. In [2], this molecule had a Kd of 4190 pM, a koff of 0.000388 s⁻¹ and an on-rate constant (kon) of 92800 M⁻¹ s⁻¹.

B9: Benchmark VHH of WO 2020/144233 fused to human IgG1 Fc (BV-Fc) (Fc fusion)
chain: EVQLVESGGGVVQPGGSLKLSCVASGTDFSINFIRWYRQAPGKQREFVAGFTATGNTNYADSMKGRFTISRDNTKNAVYLQIDSLKPEDTAVYYCYMLDKWGQGTQVTVSSGG[letters of human IgG1 Fc not shown]
notes: also called benchmark BV
As to B9, the dissociation constant Kd in [3] stood at 207 pM; in [4], 2.28 pM; in experiment [5], 444 pM; in experiment [6], 1.36 pM; in experiment [10], 0.531 pM. The koff in experiment [3] was 0.000113 s⁻¹; in experiment [4], 1.26e-06 s⁻¹; in [5] it was 0.00017 s⁻¹; in experiment [6], 2.61e-07 s⁻¹; in experiment [10], 2.86e-07 s⁻¹. Besides, the kon in experiment [3] is 549000 M⁻¹ s⁻¹; in [4], 551000 M⁻¹ s⁻¹; in experiment [5], 382000 M⁻¹ s⁻¹; in experiment [6] it was 191000 M⁻¹ s⁻¹; in experiment [10], 538000 M⁻¹ s⁻¹. Moreover, the “fold drop in affinity with 250 nM hTf versus without hTf” value in experiment [8] was about 390 fold.

B10: KB_B09 Fc fusion (Fc fusion)
chain: QVQLQESGGGLVQVGGSLRLSCAASDSAFSMNTMYWYRQAPGKQREFVAYIVSDDNTRYADSVKGRFTISRDNAKNTVYLQMNSLKPEDTAVYYCKGDVVWGQGTQVTVSSGG[letters of human IgG1 Fc not shown]
notes: Dimeric VHH-GG-human IgG1 Fc
Consider B10, for which, in [1], binding was characterised by a dissociation constant (Kd) of 34.7 pM, the koff was determined as 7.53e-07 s⁻¹ and the on-rate (kon) turned out to be 21700 M⁻¹ s⁻¹. Further, in experiment [2], the Kd is 13000 pM, the off-rate constant (koff) turned out to be 0.000104 s⁻¹ and the kon turned out to be 7980 M⁻¹ s⁻¹.

B11: KB_B10 Fc fusion (Fc fusion)
chain: QVQLQESGGGLVQVGGSLRLSCAASDSAFNMNTMYWYRQAPGKSREFVAWIVSDDNTQYADSVKGRFTISRDNAKNTVYLQMNNLKPEDTGVYYCKGDVVWGQGTQVTVSSGG[letters of human IgG1 Fc not shown]
notes: Dimeric VHH-GG-human IgG1 Fc
In experiment [1], B11 gave a Kd of under 3.09 pM, a dissociation rate constant (koff) of under 1e-07 s⁻¹ and a kon of 32300 M⁻¹ s⁻¹. In experiment [2], this molecule had a dissociation constant Kd of under 17.1 pM, an off-rate constant (koff) of under 1e-07 s⁻¹ and a kon of 5830 M⁻¹ s⁻¹.
